Reference: PubChem BioAssay AID180 (DTP/NCI, 2004)
Where “and” joins values, the source holds several entries; their conditions need not be identical. Equal entries are not always repeated. This continues a long series; more values of the same kind are listed elsewhere.

Test system: BDF1 mice, Adenocarcinoma 755 s.c., tumor weight T/C
Experiment: NCI In Vivo Anticancer Drug Screen. Data for tumor model Adenocarcinoma 755 (subcutaneous) in B6D2F1 (BDF1) mice
Conditions: endpoint: mean tumor weight, higher = larger tumour
Description: The antitumor activity of compounds was measured in mice bearing transplantable tumors. Survival or tumor size were measured and the results are expressed as the measurement made in the treated group (T) divided by the measurement made in the vehicle treated control group (C). The tumor model used in this assay is Adenocarcinoma 755 (subcutaneous) in B6D2F1 (BDF1) mice

S=c1nc[nH]c2nc[nH]c12
T/C (dose: 0.01 mg/kg/injection, schedule: Q01DX011 (ip), vehicle: carboxymethylcellulose (CMC)): 51 % of control | T/C (dose: 0.05 mg/kg/injection, schedule: Q01DX011 (ip), vehicle: carboxymethylcellulose (CMC)): 77 % of control | T/C (dose: 0.13 mg/kg/injection, schedule: Q01DX011 (ip), vehicle: carboxymethylcellulose (CMC)): 61 % of control | T/C (dose: 0.2 mg/kg/injection, schedule: Q01DX007 (ip), vehicle: carboxymethylcellulose (CMC)): 63 % of control | T/C (dose: 0.2 mg/kg/injection, schedule: Q01DX011 (ip), vehicle: carboxymethylcellulose (CMC)): 71 % of control and 88 % of control | T/C (dose: 0.25 mg/kg/injection, schedule: Q01DX007 (ip), vehicle: carboxymethylcellulose (CMC)): 73 % of control | T/C (dose: 0.25 mg/kg/injection, schedule: Q01DX011 (ip), vehicle: carboxymethylcellulose (CMC)): 77 % of control | T/C (dose: 0.25 mg/kg/injection, schedule: Q01DX011 (ip), vehicle: saline): 66 % of control | T/C (dose: 0.3 mg/kg/injection, schedule: Q01DX011 (ip), vehicle: carboxymethylcellulose (CMC)): 80 % of control | T/C (dose: 0.4 mg/kg/injection, schedule: Q01DX011 (ip), vehicle: alkali diluted with saline): 67 % of control | T/C (dose: 0.4 mg/kg/injection, schedule: Q01DX011 (ip), vehicle: saline): 77 % of control | T/C (dose: 0.43 mg/kg/injection, schedule: Q01DX011 (ip), vehicle: saline): 60 % of control | T/C (dose: 0.5 mg/kg/injection, schedule: Q01DX007 (ip), vehicle: carboxymethylcellulose (CMC)): 57 % of control | T/C (dose: 0.54 mg/kg/injection, schedule: Q01DX011 (ip), vehicle: carboxymethylcellulose (CMC)): 43 % of control | T/C (dose: 0.87 mg/kg/injection, schedule: Q01DX011 (oral), vehicle: saline): 35 % of control | T/C (dose: 0.9 mg/kg/injection, schedule: Q01DX011 (ip), vehicle: carboxymethylcellulose (CMC)): 53 % of control | T/C (dose: 2.0 mg/kg/injection, schedule: Q01DX011 (ip), vehicle: carboxymethylcellulose (CMC)): 34 % of control and 52 % of control and 57 % of control | T/C (dose: 276.0 micrograms/kg/injection, schedule: Q01DX011 (ip), vehicle: carboxymethylcellulose (CMC)): 40 % of control | T/C (dose: 345.0 micrograms/kg/injection, schedule: Q01DX011 (ip), vehicle: carboxymethylcellulose (CMC)): 58 % of control | T/C (dose: 460.0 micrograms/kg/injection, schedule: Q01DX011 (ip), vehicle: carboxymethylcellulose (CMC)): 45 % of control | T/C (dose: 690.0 micrograms/kg/injection, schedule: Q01DX011 (ip), vehicle: carboxymethylcellulose (CMC)): 33 % of control
